Measured values taken from ChEMBL document CHEMBL4888484, “Replenishing the malaria drug discovery pipeline: Screening and hit evaluation of the MMV Hit Generation Library 1 (HGL1) against asexual blood stage Plasmodium falciparum ,using a nano luciferase reporter read-out” (2022).
Out of some 4,800 compounds screened, about 420 (8.8%) showed an effect of 50% or more. This is one part of the list.

The compounds below were run on Plasmodium falciparum (assay: Confirmatory screen in NF54 nanoGlo assay, in single point, at 2uM, 72h). Settings: timepoint 72 hour.
Assay type: functional, Erythrocyte

First: CC(C)N(CC(C)(C)O)C(=O)Nc1ccc(C(N)=O)c(Cl)c1
Second: C=CCS(=O)(=O)NC(=O)c1cc(C)c(C)cc1Cl
The “% Inhibition” value of the first is higher: -1% for the first, -2% for the second.

First: COc1ccc(CCNC(=O)c2nnc(Cc3c(F)cccc3Cl)o2)cc1OC
Second: COc1ccc(CCNCC(=O)Nc2c3c(nc4ccccc24)N(C)CC3)cc1OC
The “% Inhibition” value of the first is higher: 13% for the first, 3% for the second.

First: CC12CN(S(=O)(=O)c3ccc4c(c3)OCCO4)C3(C(=O)OCc4ccccc4)CC1CCC23C (centres undefined)
Second: O[C@H](COCc1ccccc1)CN(Cc1c(-c2ccccc2F)noc1N1CCOCC1)C1CC1
The “% Inhibition” value of the first is higher: 59% for the first, 2% for the second.

First: CC[C@H]1CN2C=NC(N3CCN(C(=O)Nc4cc(F)cc(F)c4)CC3)=CC2=N1
Second: COc1ccc(CC(=O)N2CCN(c3cnn4cnnc4c3)CC2)cc1
The “% Inhibition” value of the first is higher: 35% for the first, 1% for the second.

First: C=CCNC(=O)c1cc(Br)cc(Br)c1OC
Second: Cc1ccccc1S(=O)(=O)c1cc2cc(Br)cc(Br)c2nc1N
The “% Inhibition” value of the first is higher: 6% for the first, 0% for the second.

First: O=C(Nc1ccc(Cl)c(Cl)c1)Nc1ccc(Cl)cc1NC(=O)Nc1ccc(Cl)c(Cl)c1
Second: Cc1cc(C)c(C(=O)Cn2nc3ccc(-c4ccc(Cl)cc4)nn3c2=O)c(C)c1
The “% Inhibition” value of the first is higher: 65% for the first, 4% for the second.

First: Cc1ccccc1C(=O)Cc1ncc[nH]1
Second: Cc1ccccc1CC(=O)Nc1ccc(-c2nc3ncccc3o2)cc1
The “% Inhibition” value of the first is higher: 75% for the first, 1% for the second.

Going from `O=C1C2CC2C(=O)N1Cc1ccccc1` (centres undefined) to `O=C1c2ccccc2[C@H]2N1CCN2c1ccccc1`, the “% Inhibition” value rises from 1% to 5%.

Going from `CCCC1CCC(c2ccc(-c3noc(-c4ccc(O)c(F)c4)n3)cc2)CC1` (centres undefined) to `COc1ccc(NC(=O)c2cc(C3CC3)nc3onc(C4CC4)c23)cc1Cl`, the “% Inhibition” value falls from -1% to -3%.

Compared with `CNCC(=O)Nc1ccccc1C(F)(F)F`, `O=C(Nc1cccc(C(F)(F)F)c1)S(=O)(=O)c1ccccc1` is lower in “% Inhibition” value: -8% for the first, -13% for the second.

First: O=C(CCc1nc2cccnc2[nH]1)NCCN1CCOCC1
Second: CN(C)C(=O)c1cc2c(s1)CC[C@H](C(=O)NCCN1CCOCC1)C2
The “% Inhibition” value of the first is lower: 3% for the first, 6% for the second.

Going from `Cc1ccc(NC(=O)Nc2c(C3=CCCCC3)c(C)nn2C)cc1C` to `CC(=O)c1cccc(NC(=O)Cc2c(C)nc3nc(C4CCCCC4)nn3c2C)c1`, the “% Inhibition” value rises from -12% to 5%.

First: O=C(c1cccs1)N1CCN(C2CCCCCC2)CC1
Second: O=C(CC1CCOCC1)N1CCN(C(=O)c2ccco2)CC1
The “% Inhibition” value of the first is higher: 1% for the first, -13% for the second.

Compared with `CC1CCN(C(=O)NCC2CCC(F)(F)CC2)CC1n1ccnc1` (centres undefined), `Cn1cc(C(=O)NCC2CCN(S(=O)(=O)c3cccs3)CC2)cn1` is lower in “% Inhibition” value: 3% for the first, -2% for the second.

First: O=C1NC(=O)C2(CCN(C(=O)c3cc(-c4ccco4)[nH]n3)CC2)N1
Second: COc1ccc(C(=O)N2CCC3(CC2)C[C@@H](O)CCO3)cc1
The “% Inhibition” value of the first is lower: -12% for the first, 3% for the second.

First: COc1ccc(Oc2c(CN(CC3CC3)C(=O)c3ccccc3)c(-c3ccccc3)nn2C)cc1
Second: COc1ccc(C2=NC3(CCN(Cc4ccccc4)CC3)N[C@H](c3cc(Cl)ccc3O)C2)cc1
The “% Inhibition” value of the first is lower: 2% for the first, 24% for the second.

Compared with `C[C@H]1NC(=O)N(CCc2nc(C(F)(F)F)cs2)C1=O`, `C[C@@H]1CN(C(=O)NCCc2ccc(C(F)(F)F)cn2)C[C@H](C)O1` is higher in “% Inhibition” value: -18% for the first, -6% for the second.

Going from `Nc1cc2c(cc1C1=Nc3ccccc3C(c3ccccc3)(c3ccccc3)N1)OCO2` to `O=C(Nc1nccs1)c1ccc2c(c1)CC(c1ccccc1)(c1ccccc1)OC2=O`, the “% Inhibition” value falls from 10% to -3%.

Going from `O=C(CC(c1ccccc1)c1ccccc1)N1CC(=O)N2CCc3ccccc3[C@@H]2C1` to `Cc1cccc(C(=O)N2CCc3[nH]nc(C(=O)N[C@H]4CCCc5ccccc54)c3C2)c1`, the “% Inhibition” value falls from 0% to -8%.

First: COc1ccc(-c2nccn3cc(C(=O)N4CCN(c5cccc(OC)c5)CC4)nc23)cc1
Second: CN1C(=O)[C@@H]2CCCCN2c2ccc(C(=O)N3CCN(c4cccc(Cl)c4)CC3)cc21
The “% Inhibition” value of the first is lower: -6% for the first, 4% for the second.

Compared with `Cc1nc2ccc(Cl)cc2c(-c2ccccc2)c1C1=NN(S(C)(=O)=O)[C@H](c2ccccc2Cl)C1`, `Cc1cccc(Oc2nc3ccccc3n3c(=O)n(CC(=O)NCc4ccc(Cl)cc4)nc23)c1C` is higher in “% Inhibition” value: -11% for the first, -10% for the second.

`O=C1C2ON(c3ccccc3)C(c3ccncc3)C2C(=O)N1c1ccc2ccccc2c1` (centres undefined) and `O=C1[C@@H]2[C@H](Cc3c[nH]c4ccccc34)N[C@]3(C(=O)Nc4ccccc43)[C@@H]2C(=O)N1c1cccc(C(F)(F)F)c1` are the same in “% Inhibition” value: 7% for the first, 7% for the second.

Compared with `O=C(NCc1ccc2c(c1)OCO2)c1cccc2c1C(=O)N(C1CCCCC1)C2`, `Cc1cccc(CN2CCC[C@H](C(=O)c3ccc4c5c(cccc35)CC4)C2)n1` is higher in “% Inhibition” value: -17% for the first, 63% for the second.

First: Cn1cccc1CNC1CCCCCC1C(N)=O (centres undefined)
Second: CC(C)C[C@@H]1N[C@H](C(=O)NC2CCCC2)Cc2cn(C)c3cccc1c23
The “% Inhibition” value of the first is lower: -3% for the first, 4% for the second.

Going from `CC[C@@H](CN(C)Cc1ccccc1)NC(=O)C1CCN(c2nc3cccnc3n(CC)c2=O)CC1` to `C[C@H]1CCCN(c2nc(-c3ccccn3)nc3ccccc23)C1`, the “% Inhibition” value rises from 27% to 97%.

Compared with `Brc1ccc2c(c1)C1CCCCC1N2` (centres undefined), `c1cc([C@@H]2CCCCN2c2nc(C3CC3)ns2)n[nH]1` is higher in “% Inhibition” value: -6% for the first, 2% for the second.

Compared with `C#CCOc1ccc(CCNC(=O)N(C)c2c(C)noc2C)cc1`, `CC(C)c1ocnc1C(=O)N[C@](C)(C#N)CCc1ccccc1` is higher in “% Inhibition” value: 6% for the first, 8% for the second.

`Fc1ccc(COc2ccc3ccccc3c2CNc2ccc(Br)cc2)cc1` and `Cc1ccc(NCc2ccc(OCc3cccc4ccccc34)c(Br)c2)cc1` are the same in “% Inhibition” value: 2% for the first, 2% for the second.

First: Fc1cccc(-n2nc(-c3ccccc3F)cc2-c2ccccc2F)c1
Second: COc1ccccc1[C@H]1CC(O)=Nc2c1ncn2-c1cc(F)ccc1F
The “% Inhibition” value of the first is lower: -6% for the first, -3% for the second.

Going from `Cc1ccc(C(=O)N2CCC(N3C(=O)[C@H]4CCCN4C3=O)CC2)cc1` to `Cc1ccc(CS(=O)(=O)NC(=O)N2CCC(c3ccccc3)CC2)cc1`, the “% Inhibition” value rises from -9% to 3%.

Compared with `COC(=O)C(NCc1cnc(C)s1)C(C)O` (centres undefined), `CC(C)(C)[C@@H](O)CCNC(=O)c1ccco1` is lower in “% Inhibition” value: 7% for the first, -3% for the second.

`COc1ccc(Cl)cc1S(=O)(=O)N(C)[C@H]1CCc2n[nH]c(=O)n2CC1` and `CN(C(=O)CN(C)S(=O)(=O)c1cccnc1)C1CCCC1` are the same in “% Inhibition” value: -5% for the first, -5% for the second.

Going from `O=S(=O)(NCc1ccc(C(F)(F)F)nc1N1CCC(C(F)(F)F)CC1)C(F)(F)F` to `O=S(=O)(c1c(Cl)cccc1Cl)N1CCC[C@@H]1CN1CCCC1`, the “% Inhibition” value falls from 4% to -1%.

Going from `Cc1cc(C)c(NC(=O)CCn2c(=O)c(C)nc3cc(C)c(C)cc32)c(C)c1` to `Cc1cc2nc(C)c(=O)n(Cc3ccc(C(=O)N4CCC(Cc5ccccc5)CC4)cc3)c2cc1C`, the “% Inhibition” value falls from 3% to 0%.

`O=S(=O)(Oc1ccc(Cc2ncc(C(F)(F)F)cc2Cl)cc1)c1ccccc1Cl` and `O=C(CCS(=O)(=O)c1ccc2ccccc2c1)Nc1ncn(Cc2c(F)cccc2Cl)n1` are the same in “% Inhibition” value: 2% for the first, 2% for the second.

Compared with `COCCN(Cc1c(-c2cccc(C)c2)noc1N1CCOCC1)C(=O)C1CCCC1`, `Cc1ccc(CN(CCN2CCCC2)Cc2ccc(C)o2)o1` is higher in “% Inhibition” value: -5% for the first, 3% for the second.

Going from `CC1(C)CC(C(=O)Oc2ccccc2)CC(C)(C)N1` to `CC(C)N1CCO[C@H](C(=O)Nc2c[nH]nc2-c2ccccc2)C1`, the “% Inhibition” value rises from -6% to -5%.

First: CCc1c([C@H](C)S(=O)(=O)c2ccccc2)[nH]c(=O)n1Cc1cccs1
Second: C[C@@H](Cn1c(=O)[nH]c2ccccc2c1=O)N(C)c1ccccc1
The “% Inhibition” value of the first is lower: -9% for the first, -3% for the second.

Going from `CCNC(=O)NCCOC(=O)c1cccc(C)c1Cl` to `CCOC(=O)NC(c1ccccc1F)C1CCCCCCC1=O` (centres undefined), the “% Inhibition” value falls from 1% to -9%.

Going from `CCOc1ccc(NC2=NC(=O)[C@@H](C#N)C3(CCN(Cc4ccccc4)CC3)N2)cc1` to `CCc1cccc(NC(=O)N2CCC3(CC2)C(=O)N(CC(=O)Nc2ccc(F)cc2)CN3c2ccccc2)c1`, the “% Inhibition” value rises from 4% to 43%.

First: Cc1c(CN(C)C(=O)Cn2ncc(Br)c2C)cnn1C
Second: CCCc1cc(NC(=O)N(CC)CCc2nccs2)n(C)n1
The “% Inhibition” value of the first is lower: -7% for the first, 2% for the second.

Compared with `Cc1ccc(C)c(/C=C/c2nnc(C)o2)c1`, `Cc1nnc([C@@H](NC(=O)Nc2ccccc2F)C(C)C)[nH]1` is higher in “% Inhibition” value: -12% for the first, 3% for the second.

Going from `CCc1nc(C(=O)N2C[C@@H]3CCCN(C(=O)c4coc(CC)n4)[C@@H]3C2)co1` to `CC1CC(C)CN(C(=O)c2cc(NC(=O)c3ccccc3)n(C)n2)C1` (centres undefined), the “% Inhibition” value falls from 0% to -9%.

Compared with `O=C(O)CCNC(=O)c1ccc(NC(=O)c2cnc(-c3ccsc3)s2)cc1`, `Cc1cc(NC(=O)c2ccc[nH]2)ccc1Oc1ccncc1` is lower in “% Inhibition” value: 0% for the first, -5% for the second.

Compared with `CCCC[C@H](Oc1ccc(C(C)(C)CC)cc1C(C)(C)CC)C(=O)Nc1ccc(NC(=O)C(F)(F)C(F)(F)C(F)(F)F)c(O)c1`, `COc1ccc(NC(=O)Cn2cnc3nc(N(C)Cc4ccccc4)sc3c2=O)cc1Cl` is lower in “% Inhibition” value: 30% for the first, -8% for the second.

Going from `CC(C(=O)Nc1nccs1)N1CCCC(c2ccn[nH]2)C1` (centres undefined) to `O=C(NCC1(Cc2ccccc2)CCC1)N(CCO)C1CC1`, the “% Inhibition” value falls from 50% to -7%.

First: COc1ccc(C(=O)CN2C=CCC=C2c2nc(-c3ccc(Cl)cc3)cs2)cc1
Second: CN1C(=O)N(c2cc(Cl)cc(Cl)c2)C(=O)[C@]12CN(c1ccc(C(=O)O)cn1)C[C@H]2c1ccc(C#N)cc1
The “% Inhibition” value of the first is higher: 72% for the first, 5% for the second.

Compared with `CC(C)CC(=O)N=c1nc(S)ss1`, `COc1ccc([C@@H]2NC(=O)c3cc(C(C)C)sc3N2)cc1COc1ccc(F)cc1F` is higher in “% Inhibition” value: -4% for the first, 4% for the second.

First: COc1cccc(C(=O)N2C[C@@H]3C[C@H](NC(=O)c4ccccc4)[C@H]2C3)c1OC
Second: O=S(=O)(Nc1cccc2cccnc12)c1cccs1
The “% Inhibition” value of the first is lower: -1% for the first, 60% for the second.

In the case of `COc1cccc(Cn2nc3ccc(S(=O)(=O)N4CCCC4)cn3c2=O)c1`, the “% Inhibition” value was 2%.
